Laboratory results published in the supplement of paper PMC10126150.
Values marked as one replicate rest on one cluster of the flow cell; about a third of the high ones do not repeat.
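Note: ATP exposure 15 min at 22 °C before imaging.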

The sequences below were run on ATP (assay: switch fluorescence ratio, 500 uM ATP over buffer (Cy3 cluster intensity, sum of 5 cycles each) (fold (ratio)); higher = stronger signal-on switching upon ATP binding; sequences stand for … in TCGTCGGCAGCGTCAGATGTGTATAAGAGACAGTTTTTTTTTTTTTTTTTTTTTTTTT…TC). Conditions: aptamer strand: ATP DNA aptamer (quencher-CACCTGGGGGAGTATTGCGGAGGAAGG + anchor), 100 nM annealed; ATP concentration: 500 uM; one replicate.
Method in brief: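 After annealing to 100 nM quencher-labelled ATP aptamer, Cy3-labelled switching-strand clusters on a modified Illumina MiSeq flow-cell were imaged in selection buffer. A second image followed after 15 min with 500 uM ATP at 22 °C, and five such buffer/ATP cycles were done, each separated by NaOH stripping and re-annealing. The fluorescence ratio, averaged per switch-domain sequence, is summed target-cycle over summed buffer-cycle Cy3 intensity per cluster, with clusters outside 100-1000 RFU excluded.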
CTTCAAGGTA was tested, and the switch fluorescence ratio was 0.98.
CTTCAGGGTC was tested, and the switch fluorescence ratio was 1.01.
For CTTCCAGCAT, the switch fluorescence ratio was 3.97.
CTTCCCATAA was tested, and the switch fluorescence ratio was 1.59.
Sequence CTTCCGGACT has a switch fluorescence ratio of 1.38.
CTTCGAGCCG showed a switch fluorescence ratio of 0.953.
CTTCTAAACG was tested, and the switch fluorescence ratio was 1.12.
Sequence CTTCTAACAT has a switch fluorescence ratio of 1.02.
For CTTCTAAGAT, the switch fluorescence ratio was 0.992.
CTTCTATAA was tested, and the switch fluorescence ratio was 0.96.
For CTTCTCAAAA, the switch fluorescence ratio was 1.11.
Work on CTTCTCAGT yielded a switch fluorescence ratio of 1.
In the case of CTTCTGCACG, the switch fluorescence ratio is reported as 1.13.
Sequence CTTCTGCCGA has a switch fluorescence ratio of 1.07.
CTTCTGTTGT showed a switch fluorescence ratio of 1.03.
Work on CTTCTTAATA yielded a switch fluorescence ratio of 1.03.
CTTCTTATTA showed a switch fluorescence ratio of 0.983.
Work on CTTGAACAAT yielded a switch fluorescence ratio of 1.06.
CTTGAGAGGT gave a switch fluorescence ratio of 0.983.
For CTTGAGGGCA, the switch fluorescence ratio was 1.01.
CTTGAGTGAC gave a switch fluorescence ratio of 0.986.
For CTTGAGTGG, the switch fluorescence ratio was 0.941.
CTTGATTCCT was tested, and the switch fluorescence ratio was 1.01.
In the case of CTTGCAGAAT, the switch fluorescence ratio is reported as 0.965.
With CTTGCCGTAT the switch fluorescence ratio was 1.01.
With CTTGCCTGAT the switch fluorescence ratio was 1.01.
CTTGCGGTTT gave a switch fluorescence ratio of 1.03.
CTTGCTATTG gave a switch fluorescence ratio of 1.03.
CTTGCTGAGC gave a switch fluorescence ratio of 1.01.
Work on CTTGGAAAAG yielded a switch fluorescence ratio of 0.995.
CTTGGACTA gave a switch fluorescence ratio of 0.997.
CTTGGACTCA gave a switch fluorescence ratio of 1.02.
CTTGGATAT gave a switch fluorescence ratio of 1.01.
CTTGGCCGGC was tested, and the switch fluorescence ratio was 0.994.
Sequence CTTGGGACGC has a switch fluorescence ratio of 1.16.
In the case of CTTGGGCGAA, the switch fluorescence ratio is reported as 0.989.
In the case of CTTGGGGTGG, the switch fluorescence ratio is reported as 0.981.
CTTGGTATGC showed a switch fluorescence ratio of 1.
CTTGTACCGC was tested, and the switch fluorescence ratio was 1.22.
CTTGTCGAGC was tested, and the switch fluorescence ratio was 0.997.
In the case of CTTGTGCCGG, the switch fluorescence ratio is reported as 1.02.
Sequence CTTGTGGTGA has a switch fluorescence ratio of 1.
For CTTGTTGGAA, the switch fluorescence ratio was 0.973.
CTTGTTTCCT gave a switch fluorescence ratio of 1.05.
In the case of CTTGTTTTGC, the switch fluorescence ratio is reported as 0.992.
For CTTTAAAGAA, the switch fluorescence ratio was 0.974.
Sequence CTTTAAGTAT has a switch fluorescence ratio of 1.02.
CTTTACCGAC gave a switch fluorescence ratio of 1.54.
For CTTTAGTACC, the switch fluorescence ratio was 1.04.
CTTTATAGCG was tested, and the switch fluorescence ratio was 1.01.
CTTTATAGTC was tested, and the switch fluorescence ratio was 0.97.
Work on CTTTATCGCT yielded a switch fluorescence ratio of 0.986.
CTTTATGAGT was tested, and the switch fluorescence ratio was 1.06.
Sequence CTTTCCGGAC has a switch fluorescence ratio of 1.37.
For CTTTCCTCGG, the switch fluorescence ratio was 1.08.
In the case of CTTTCCTTGA, the switch fluorescence ratio is reported as 0.973.
CTTTCGATAA was tested, and the switch fluorescence ratio was 1.03.
CTTTCGTCCG was tested, and the switch fluorescence ratio was 1.25.
CTTTCTCTGC gave a switch fluorescence ratio of 2.73.
CTTTGAAACC gave a switch fluorescence ratio of 1.
For CTTTGAACCG, the switch fluorescence ratio was 1.01.
With CTTTGAAGAA the switch fluorescence ratio was 1.01.
CTTTGCACGG was tested, and the switch fluorescence ratio was 1.08.
CTTTGCGA gave a switch fluorescence ratio of 1.37.
CTTTGGGGTG was tested, and the switch fluorescence ratio was 1.04.
CTTTGTCAAT gave a switch fluorescence ratio of 1.21.
With CTTTGTGCCA the switch fluorescence ratio was 0.989.
CTTTGTTGGG gave a switch fluorescence ratio of 0.954.
CTTTTAACGC was tested, and the switch fluorescence ratio was 1.08.
With CTTTTAAGG the switch fluorescence ratio was 0.986.
Work on CTTTTAATGC yielded a switch fluorescence ratio of 1.05.
With CTTTTACATC the switch fluorescence ratio was 0.985.
With CTTTTACTCT the switch fluorescence ratio was 0.958.
CTTTTATAAG showed a switch fluorescence ratio of 1.02.
CTTTTGCCAT was tested, and the switch fluorescence ratio was 2.72.
Sequence CTTTTGGGGC has a switch fluorescence ratio of 0.99.
CTTTTGTATC was tested, and the switch fluorescence ratio was 1.03.
With GAAAAATGAG the switch fluorescence ratio was 0.951.
GAAAAGGTGT showed a switch fluorescence ratio of 1.03.
With GAAAATAATG the switch fluorescence ratio was 0.999.
GAAAATATTT gave a switch fluorescence ratio of 0.991.
GAAACAAAAA showed a switch fluorescence ratio of 0.98.
With GAAACAACTA the switch fluorescence ratio was 0.988.
Work on GAAACCGGCG yielded a switch fluorescence ratio of 1.33.
For GAAACGCCCG, the switch fluorescence ratio was 1.07.
With GAAACGTGCA the switch fluorescence ratio was 1.03.
In the case of GAAACTTATT, the switch fluorescence ratio is reported as 1.04.
Work on GAAAGAACGT yielded a switch fluorescence ratio of 1.02.
GAAAGCAAAC was tested, and the switch fluorescence ratio was 4.83.
In the case of GAAAGCGTGC, the switch fluorescence ratio is reported as 1.06.
In the case of GAAAGCTATA, the switch fluorescence ratio is reported as 1.07.
GAAAGGCTCG gave a switch fluorescence ratio of 1.03.
GAAAGTTACT gave a switch fluorescence ratio of 1.02.
GAAAGTTCCT showed a switch fluorescence ratio of 1.06.
GAAATAGGCA was tested, and the switch fluorescence ratio was 0.957.
With GAAATCAAAG the switch fluorescence ratio was 1.01.
Sequence GAAATCGTAT has a switch fluorescence ratio of 1.01.
GAAATGATCT was tested, and the switch fluorescence ratio was 0.965.
Sequence GAAATGCTCA has a switch fluorescence ratio of 1.13.
Sequence GAAATTAATG has a switch fluorescence ratio of 1.08.
For GAAATTGGTG, the switch fluorescence ratio was 1.02.
GAACACCGGC was tested, and the switch fluorescence ratio was 1.04.
Sequence GAACAGGGCG has a switch fluorescence ratio of 0.977.
GAACATATAT was tested, and the switch fluorescence ratio was 1.12.
Work on GAACATCAAA yielded a switch fluorescence ratio of 1.02.
With GAACCCAGTT the switch fluorescence ratio was 0.953.
GAACCCCGGG gave a switch fluorescence ratio of 1.26.
Sequence GAACCCGCG has a switch fluorescence ratio of 1.07.
Work on GAACCCTGAA yielded a switch fluorescence ratio of 1.09.
For GAACGACATT, the switch fluorescence ratio was 1.
GAACGCCGTG gave a switch fluorescence ratio of 0.982.
Work on GAACGGATTA yielded a switch fluorescence ratio of 1.06.
Work on GAACGGGTTT yielded a switch fluorescence ratio of 0.996.
In the case of GAACGGTCAC, the switch fluorescence ratio is reported as 1.2.
GAACGGTTAG showed a switch fluorescence ratio of 0.95.
GAACGTCGTG showed a switch fluorescence ratio of 0.969.
Work on GAACGTGGAA yielded a switch fluorescence ratio of 0.985.
In the case of GAACTAAAAG, the switch fluorescence ratio is reported as 0.979.
GAACTAGCAA was tested, and the switch fluorescence ratio was 0.95.
Work on GAACTATCCG yielded a switch fluorescence ratio of 1.03.
For GAACTCTGCT, the switch fluorescence ratio was 1.15.
GAACTGAGTG was tested, and the switch fluorescence ratio was 1.01.
GAACTGCCCG was tested, and the switch fluorescence ratio was 1.03.
With GAACTGGGCA the switch fluorescence ratio was 0.989.
GAACTGTAAT gave a switch fluorescence ratio of 1.02.
In the case of GAACTGTGAG, the switch fluorescence ratio is reported as 1.03.
Sequence GAACTTGAGA has a switch fluorescence ratio of 1.05.
For GAACTTTGGG, the switch fluorescence ratio was 1.03.
For GAAGAAACAC, the switch fluorescence ratio was 1.46.
GAAGACTAAA gave a switch fluorescence ratio of 0.989.
GAAGACTCCA showed a switch fluorescence ratio of 1.06.
GAAGAGCGTT gave a switch fluorescence ratio of 0.969.
Work on GAAGAGCTGA yielded a switch fluorescence ratio of 0.986.
With GAAGAGTAGG the switch fluorescence ratio was 0.983.
GAAGAGTTAG showed a switch fluorescence ratio of 0.993.
With GAAGATATGG the switch fluorescence ratio was 0.993.
Sequence GAAGATGTTA has a switch fluorescence ratio of 0.998.
With GAAGATTAA the switch fluorescence ratio was 1.02.
For GAAGATTAAT, the switch fluorescence ratio was 1.02.
GAAGATTATT was tested, and the switch fluorescence ratio was 1.01.
GAAGCACAGG was tested, and the switch fluorescence ratio was 1.68.
GAAGCAGCAT showed a switch fluorescence ratio of 1.1.
GAAGCAGGCT gave a switch fluorescence ratio of 1.08.
GAAGCCCGGG showed a switch fluorescence ratio of 0.96.
In the case of GAAGCTTAGT, the switch fluorescence ratio is reported as 0.966.
In the case of GAAGGACTGG, the switch fluorescence ratio is reported as 1.11.
GAAGGATCCG showed a switch fluorescence ratio of 1.05.
GAAGGATTCG was tested, and the switch fluorescence ratio was 1.03.
Work on GAAGGCACCA yielded a switch fluorescence ratio of 1.02.
GAAGGCTTCA gave a switch fluorescence ratio of 0.973.
For GAAGGTTGTT, the switch fluorescence ratio was 0.982.
GAAGTACCGC was tested, and the switch fluorescence ratio was 1.15.
In the case of GAAGTACGGG, the switch fluorescence ratio is reported as 1.17.
GAAGTCCGTG showed a switch fluorescence ratio of 1.05.
Sequence GAAGTCGAGC has a switch fluorescence ratio of 0.968.
In the case of GAAGTCTCGA, the switch fluorescence ratio is reported as 0.968.
GAAGTGATTT showed a switch fluorescence ratio of 1.06.
With GAAGTGCACC the switch fluorescence ratio was 0.987.
Sequence GAAGTGTTAT has a switch fluorescence ratio of 1.01.
GAAGTTCTAA gave a switch fluorescence ratio of 0.978.
Sequence GAAGTTTGGG has a switch fluorescence ratio of 1.01.
GAATAGAGTG showed a switch fluorescence ratio of 0.944.
GAATATAAAA showed a switch fluorescence ratio of 0.981.
For GAATATAGGT, the switch fluorescence ratio was 1.01.
GAATATCCTT showed a switch fluorescence ratio of 1.03.
GAATATTTT showed a switch fluorescence ratio of 0.98.
GAATCAGTCG was tested, and the switch fluorescence ratio was 0.95.
GAATCCAGGT was tested, and the switch fluorescence ratio was 1.09.
For GAATCGCCTC, the switch fluorescence ratio was 1.02.
Work on GAATCGCTCA yielded a switch fluorescence ratio of 1.03.
For GAATCGGCTA, the switch fluorescence ratio was 1.01.
GAATCTAAGA showed a switch fluorescence ratio of 0.982.
GAATCTGATT showed a switch fluorescence ratio of 1.02.
In the case of GAATCTGTCC, the switch fluorescence ratio is reported as 1.11.
With GAATGAACAT the switch fluorescence ratio was 1.03.
For GAATGGGCTG, the switch fluorescence ratio was 1.01.
GAATGGTAAT gave a switch fluorescence ratio of 0.986.
Sequence GAATGTCTCT has a switch fluorescence ratio of 1.01.
GAATGTTCAT showed a switch fluorescence ratio of 0.965.
GAATTAACTT gave a switch fluorescence ratio of 1.05.
With GAATTACAAG the switch fluorescence ratio was 0.989.
Work on GAATTCAATG yielded a switch fluorescence ratio of 1.02.
GAATTCCG was tested, and the switch fluorescence ratio was 1.06.
In the case of GAATTCCGGG, the switch fluorescence ratio is reported as 1.02.
In the case of GAATTCCGT, the switch fluorescence ratio is reported as 0.948.
For GAATTCCGTC, the switch fluorescence ratio was 0.978.
GAATTCTCAG was tested, and the switch fluorescence ratio was 1.
Work on GAATTTAATC yielded a switch fluorescence ratio of 1.01.
With GAATTTACTA the switch fluorescence ratio was 1.01.
Work on GACAAAAACG yielded a switch fluorescence ratio of 1.02.
In the case of GACAAAAGGG, the switch fluorescence ratio is reported as 0.96.
GACAAATGCC gave a switch fluorescence ratio of 1.02.
GACAACCTG was tested, and the switch fluorescence ratio was 1.12.
Sequence GACAAGGAGC has a switch fluorescence ratio of 0.96.
Sequence GACAATGCAC has a switch fluorescence ratio of 1.3.
For GACACAACAT, the switch fluorescence ratio was 1.11.
GACACAATT was tested, and the switch fluorescence ratio was 1.09.
For GACACACATT, the switch fluorescence ratio was 1.31.
GACACAGTAC was tested, and the switch fluorescence ratio was 4.79.
GACACCATAT gave a switch fluorescence ratio of 1.07.
